Assay results taken from patent publication US6339078B1, “Methods of prevention and treatment of ischemic damage” (University of Florida Research Foundation, Inc., priority 1999, dated 2002).

Test system: ovariectomized rats, ischemia induced by middle cerebral artery occlusion (MCAO)
Assay: Ischemic area in brain slices after MCAO, estrogen pretreatment
Format: in vivo, rat
Details: 10 μg/kg sc injection 2 hours prior to ischemic event, sacrifice at 24 hours

C[C@]12CC[C@@H]3c4ccc(O)cc4CC[C@H]3[C@@H]1CC[C@@H]2O [17β-estradiol]
reduction of ischemic lesion size of the whole coronal section (region C (9 mm)): 46.3%
reduction of ischemic lesion size of the whole coronal section (region D (11 mm)): 44.1%
